# Source: the supplement of paper PMC3334620
# Over roughly 33,000 sequences, “E-score (-0.5 to 0.5)” has its median near -0.012; the highest 2% begin near 0.29. The list shows a part of the results.
# Target: T1, Ybr033w (UniProt P38073)
# T1 sequence: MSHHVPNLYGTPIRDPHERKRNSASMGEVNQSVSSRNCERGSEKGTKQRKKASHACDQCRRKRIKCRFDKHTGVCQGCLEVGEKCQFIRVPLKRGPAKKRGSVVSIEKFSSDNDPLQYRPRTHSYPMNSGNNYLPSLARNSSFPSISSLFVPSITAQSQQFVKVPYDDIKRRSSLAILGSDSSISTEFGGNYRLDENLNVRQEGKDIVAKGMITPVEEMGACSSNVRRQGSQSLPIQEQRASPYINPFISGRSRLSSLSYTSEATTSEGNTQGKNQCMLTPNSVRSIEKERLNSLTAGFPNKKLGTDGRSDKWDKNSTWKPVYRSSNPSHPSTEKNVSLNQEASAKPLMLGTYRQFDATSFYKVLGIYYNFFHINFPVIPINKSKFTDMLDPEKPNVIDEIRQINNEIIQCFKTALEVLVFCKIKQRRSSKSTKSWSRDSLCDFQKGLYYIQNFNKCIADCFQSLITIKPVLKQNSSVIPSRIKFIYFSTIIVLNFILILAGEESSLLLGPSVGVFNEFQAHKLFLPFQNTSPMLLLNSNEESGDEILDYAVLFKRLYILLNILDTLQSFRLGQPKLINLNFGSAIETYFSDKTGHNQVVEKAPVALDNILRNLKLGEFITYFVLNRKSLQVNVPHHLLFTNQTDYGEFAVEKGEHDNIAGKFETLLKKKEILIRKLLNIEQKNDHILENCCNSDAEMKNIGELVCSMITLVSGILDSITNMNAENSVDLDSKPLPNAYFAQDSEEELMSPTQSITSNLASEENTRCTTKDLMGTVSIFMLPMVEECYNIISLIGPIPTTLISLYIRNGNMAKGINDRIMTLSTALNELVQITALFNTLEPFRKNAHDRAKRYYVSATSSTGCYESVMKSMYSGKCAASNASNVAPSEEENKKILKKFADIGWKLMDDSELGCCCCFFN
# Experiment: PBM E-score (8-mer binding enrichment) (E-score (-0.5 to 0.5)); higher = stronger / more preferred TF binding; most listed sequences are background and not binding sites
# Settings: protein concentration: 200 nM; construct: GST-full length
# Method in brief: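 PURExpress in vitro transcription/translation supplied GST-tagged yeast transcription factors, either full-length or DNA-binding domain. Applied at about 100-200 nM to universal all-10-mer Agilent arrays double-stranded by primer extension, the bound protein was detected with fluorescent anti-GST. E-scores, modified Wilcoxon-Mann-Whitney statistics, were given by the Universal PBM Analysis Suite to ungapped eight-base words pooled with their reverse complements after masliner normalisation.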
row,Sequence,PBM E-score
1,TACGGAAA,0.24
2,ATCGCAGA,-0.175
3,ACTAAGCG,-0.117
4,ACCCTAAC,0.0314
5,GTGAGTGA,-0.159
6,GACTACAC,-0.038
7,GCCAAAGC,-0.169
8,ATCGTTTG,0.0414
9,AATGATAG,0.215
10,CTAACTTA,0.0795
11,GCACCTGC,0.0281
12,GAACCAGC,0.131
13,ATAGTGTG,0.179
14,CACGGATC,-0.00514
15,ACCTAAAT,0.198
16,GGGTCTAC,-0.118
17,GGTCAGGA,-0.0921
18,CTGTTAGA,-0.0205
19,CTTCCTAC,-0.181
20,GGATAGCA,-0.00024
21,TAAAACCA,0.106
22,GCATGCAA,-0.0121
23,ATCTGCGC,-0.136
24,ACGCGCTA,0.0816
25,CAGGCAAG,-0.105

row,Sequence,PBM E-score
1,CTTCAGTA,0.0771
2,CGCCGCCC,-0.252
3,CTGCAGCA,-0.0314
4,AAGGTAGG,-0.054
5,TGGTGAAA,-0.0357
6,CAGGTCAA,-0.148
7,GGACGCCC,-0.363
8,AACGGTCT,-0.0773
9,AAACACTG,0.127
10,GAGGAAAA,0.199
11,CGATCATA,0.0546
12,CCAGGTCG,-0.105
13,GTTAATAA,0.329
14,CTGTCGAC,-0.176
15,GCAAGACA,-0.0734
16,TGGCCCAA,-0.176
17,CCACGGCG,-0.16
18,CCGGTGGA,-0.0838
19,AGTGATTG,0.0992
20,ACGAGTGG,-0.135
21,ACGTCGTA,-0.204
22,ATTCTAGA,0.225
23,ACGACACT,0.0431
24,AGCCCATC,-0.122
25,ACAGTCGC,-0.136

row,Sequence,PBM E-score
1,AGGCTCGA,0.0227
2,GGGCAGCA,-0.243
3,CCGACCAA,-0.0529
4,CCACTCTC,-0.0585
5,GCTATGAC,0.042
6,AGCCAATC,0.0182
7,ACGTCAGC,0.0468
8,CCGTCACG,-0.0881
9,GAGTGGAA,0.134
10,AGGGCCAA,-0.373
11,CGTAGTAA,0.0993
12,ACAGACGA,0.085
13,AATGCGAT,-0.0207
14,AATCCAGG,0.123
15,TCCGAGCA,0.0809
16,GAAGGCAA,0.0233
17,AAGATATG,0.241
18,ACCTAGCA,0.0895
19,CCAAAGGC,-0.161
20,ACGGTTTC,-0.0349
21,ACGTCTCA,0.102
22,GCACATAC,-0.235
23,CACGTGAG,-0.131
24,CCGCAAAG,0.0497
25,GCCCGATA,-0.169

row,Sequence,PBM E-score
1,CATGGATC,0.0252
2,AGTATGCC,-0.0467
3,CTAGCTCA,0.00463
4,AGGAGCAA,-0.221
5,CTGGTCGA,-0.173
6,AATTCGAA,0.187
7,GATAGTTA,0.151
8,ACACTTGG,0.0106
9,GGTGCCAA,-0.0332
10,ACTTCGAG,-0.00832
11,ATCGGCTC,-0.0987
12,AGAATTCC,0.0767
13,AAACATCA,0.144
14,AGGTAGGG,-0.11
15,AGACGTTA,-0.143
16,GACCTTGA,0.0594
17,TGTCAGAA,0.0665
18,ATGCAACC,0.0993
19,ACGTTGAA,0.0704
20,GCTACAAA,0.0727
21,CATGCACG,-0.0999
22,AAGGATGA,0.0188
23,CACTATTC,0.181
24,CTGGACCA,-0.179
25,AAGAGATG,-0.136

row,Sequence,PBM E-score
1,AAGTTCGG,-0.0232
2,GGATTAAC,0.441
3,CCCGCCTA,-0.0275
4,AATAAGAC,0.0344
5,CGTCTAGC,-0.0278
6,AAGCCCGA,-0.0933
7,ATCGACCA,-0.101
8,CGAGAATC,-0.0666
9,ACACAATC,0.0933
10,ACCCGCAC,-0.00772
11,TGATTGCA,0.146
12,AGGACTCG,-0.322
13,GACAAATA,0.277
14,CAGGGATC,-0.108
15,AAATCCCG,0.196
16,AGGATTGC,-0.143
17,CAGACGGG,-0.122
18,ATGATATC,0.00879
19,CGCCGCTC,-0.255
20,CCCCACGC,-0.336
21,ATGAGCCA,0.058
22,AGAACCGC,0.096
23,AGACACTC,-0.0228
24,CGTGTGGA,-0.172
25,TAGCCGAA,0.0185

row,Sequence,PBM E-score
1,TACCGCTA,-0.0732
2,TCACTAGA,0.12
3,CTTAGTCC,-0.0064
4,CAGTAATG,0.282
5,AACCCGTC,-0.177
6,GCAGTAAC,-0.0889
7,GTCGCCGA,-0.159
8,ATACTCTA,0.0965
9,GAGACACA,-0.0143
10,AAAAACTA,0.26
11,ACTTCAAC,0.108
12,CATTCAAC,0.0394
13,ATTAGATG,0.329
14,TTAAAGAA,0.117
15,CATCCGGC,-0.00234
16,TAAGGGAA,0.149
17,ACACCCAC,0.00384
18,CCTCGGCC,0.0245
19,CGTTATAC,-0.168
20,AGTAACTA,0.137
21,CAAATAAG,0.0366
22,GCCCAAGA,-0.17
23,AAGATCCT,0.237
24,AATTGAGG,0.149
25,ATATATCA,0.0628

row,Sequence,PBM E-score
1,ACCATGAA,0.0989
2,ACCAAACT,0.0243
3,GTGGTCCA,0.0238
4,GTGCATAA,0.0823
5,ATGCCAGA,0.0873
6,CGGGCGCC,-0.158
7,GCTTCCAC,-0.224
8,AGTTGGCC,-0.141
9,GCTGTAAC,0.074
10,AATCACCC,0.157
11,AGAGGGGC,-0.284
12,AAAGATAC,0.12
13,ACCGCCTC,-0.215
14,CTATTCAG,0.0682
15,ACAGATCT,0.0117
16,AAGGTCGC,-0.155
17,ACGGGACA,-0.0377
18,CAGATTTA,0.241
19,AAGGCAAC,0.0645
20,TGAGTTAA,0.239
21,AATAAAGG,0.0453
22,AGCTCCTG,-0.236
